Source: the RNAGym collection of RNA variant scans (doi:10.1093/nar/gkz1192)
Read counts are not given, so values of variants with three or more changes are uncertain.

B1: CPEB3 Ribozyme (parent)
chain: UAACAGGGGGCCACAGCAGAAGCGUUCACGUCGCAGCCCCUGUCAGAUUCUGGUGAAUCUGCGAAUUCUGCUGUAUAUCUC

Variants of: B1
Assay: self-cleavage, relative activity (ratio to wild type); higher = more cleavage; in vitro, sequencing
How it was run: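 Relative activity compares each variant's cleaved/total read fraction with that of the unmutated ribozyme. To get these fractions, barcoded CPEB3 ribozyme libraries from rounds of error-prone PCR were transcribed with T7 RNA polymerase for 5 hours at 37°C and then given 15 min of DNase I treatment before EDTA was added. The RNAs were reverse transcribed with template switching and sequenced on Illumina, and DNA sequencing linked barcodes to variants. A minimum of 5 reads applied, and three batches were averaged.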
With A35U C40G U67C the self-cleavage was 0.12. With A35U U41A U66A U69C the self-cleavage was 0.06. U41C U49C G61A U66C showed a self-cleavage of 0.4. In the case of C37A U43C A56G, the self-cleavage is reported as 0.17. In the case of A35U C39G C50U U66C, the self-cleavage is reported as 0.06. Work on U41C U48C U60C A64G U67A yielded a self-cleavage of 0.15. In the case of U41C U51C U69A U72C, the self-cleavage is reported as 0.6. In the case of C40A A56G U58C, the self-cleavage is reported as 0.08. Variant C38A U43C A45G U80C has a self-cleavage of 0.25. C37A U43C U51A U78A gave a self-cleavage of 0.14. U41A U49A U74C gave a self-cleavage of 0.27. In the case of A35U A57U A64C, the self-cleavage is reported as 0.07. With A35U A45G U80C the self-cleavage was 0.3. For C39A U67C U74C, the self-cleavage was 0.08. C40U U43A A65G gave a self-cleavage of 0.2. In the case of U41A A47G U49C, the self-cleavage is reported as 0.09. With A35U U41A C44U A65G A77C U78A the self-cleavage was 0.1. For C39G U60A U67A U69C C71U A75G, the self-cleavage was 0. Work on U41A A64U U66C yielded a self-cleavage of 0.13. For U41A U43C U51C C62G U66C U76G, the self-cleavage was 0.14. In the case of C40U U49A A57G A75G, the self-cleavage is reported as 0.15. For U41A U49C U72A U76A, the self-cleavage was 0.04. G36A U49C U80C gave a self-cleavage of 0.19. Work on U41A A45G A77G yielded a self-cleavage of 0.35. With C37A C40G U41C U43C C50U U58A U76C the self-cleavage was 0.06. In the case of C37U U41A U43A U54A, the self-cleavage is reported as 0.1. For U41A U51A C71U, the self-cleavage was 0.1. Variant A35U U51C U60C U69A has a self-cleavage of 0.16. Variant A35U G36C A47G U49C has a self-cleavage of 0.22. Variant A35U A64U C71G has a self-cleavage of 0.12. Variant G36A U48A U78A has a self-cleavage of 0.05. G36C C40U U80A showed a self-cleavage of 0.3. For U41C A47G U69C, the self-cleavage was 0.65. Work on U41C A45U U67C A75G yielded a self-cleavage of 0.26. Variant U41C A45C A64U U74C U80A has a self-cleavage of 0.39. U41A U43C U51A U66A gave a self-cleavage of 0.26. With C38G A45U U60C the self-cleavage was 0.27. In the case of A35U U72C U80A, the self-cleavage is reported as 0.27. Variant C40A A45U U49C U54A A56G U72C has a self-cleavage of 0.08. U41A U54C U74C A75G showed a self-cleavage of 0.1. Variant C40U U41C U66C U72A U80C has a self-cleavage of 0.41. In the case of A35U A45U U58G, the self-cleavage is reported as 0.08. With C40A U58C U74C the self-cleavage was 0.24. U41A U49C A77G showed a self-cleavage of 0.19. With U41C U43A A47G U60C the self-cleavage was 0.19. A35U U51G C71G showed a self-cleavage of 0.19. Work on A35U U60C U72A yielded a self-cleavage of 0.31. With C38U C50U U76A the self-cleavage was 0.8. In the case of A35U U41G U74C, the self-cleavage is reported as 0.64. In the case of C40U U51C A57G, the self-cleavage is reported as 0.39. In the case of C40A A45G U72C, the self-cleavage is reported as 0.56. Variant C40U U48C U51A G61C U69C has a self-cleavage of 0.27. Variant C37G C38A U41G C71A has a self-cleavage of 0.18. U41C A45G A47G gave a self-cleavage of 0.51. C37U A57G A64U U67C showed a self-cleavage of 0.19. C40A U67C U69C gave a self-cleavage of 0.58. With C40U A45U U51A U78C the self-cleavage was 0.08. For U41A U43A A64G, the self-cleavage was 0.21. A35U U58A A65G U72A showed a self-cleavage of 0.07. With U41C A56G A64U the self-cleavage was 0.6. In the case of U41A U49C U51C U76C U78A, the self-cleavage is reported as 0.04. In the case of U41C G53U U58C, the self-cleavage is reported as 0.6. Variant A35U U43C U54C A64U U67C has a self-cleavage of 0.15. A35U U41A A64G showed a self-cleavage of 0.32. With A35U U49C U54C U72C U74C the self-cleavage was 0.07. A35U U49C G61U showed a self-cleavage of 0.21. Work on C37U U43C U49C A64G yielded a self-cleavage of 0.08. Variant G36C U54C A56G has a self-cleavage of 0.16. For C38G U72C U80C, the self-cleavage was 0.32. Work on U41A U60A A64G A65U U74G yielded a self-cleavage of 0.16. For A35U A45U U48A A64G A75U, the self-cleavage was 0.02. Work on U41C A65G U80C yielded a self-cleavage of 0.77. In the case of A35U A64U U69C A75U U80C, the self-cleavage is reported as 0.07. For U41A A64G U76C, the self-cleavage was 0.1. A35U G36C C59A gave a self-cleavage of 0.17. With C39U U58C U66G the self-cleavage was 0.13. C40A U72C A75G showed a self-cleavage of 0.1. For U41C A64U U72C U78A, the self-cleavage was 0.64. U41A U49C G70A gave a self-cleavage of 0.08. U41C U48A U51A U54A U74A showed a self-cleavage of 0.74. With U41A U49C U51C A64U U66C U69A U80C the self-cleavage was 0.06. U41C A45U A57G U72G showed a self-cleavage of 0.48. For C40U A57G U69C, the self-cleavage was 0.39. Variant U41A U43C C62G A64G U66C U80C has a self-cleavage of 0.12. Work on C40U U43A A56C yielded a self-cleavage of 0.35. Work on C40U G46U A64U yielded a self-cleavage of 0.06. Work on U41C A64G U69C yielded a self-cleavage of 0.22. U41A U51A A64G U76C A77U gave a self-cleavage of 0.18. For A35U U60G U67C U74C U80C, the self-cleavage was 0.13. A35U U48C A56G U60C G61A showed a self-cleavage of 0.07. Variant A35U G73C U78C has a self-cleavage of 1.02. Variant C37U U58C U72A has a self-cleavage of 0.48. U41C U43C U48A A57G gave a self-cleavage of 0.07. Work on U41A A64G U80C yielded a self-cleavage of 0.25. A35U A56U U58C U72C gave a self-cleavage of 0.12. With U41C G53U U60C the self-cleavage was 0.89. For C38U U41C A65G, the self-cleavage was 0.32. C38A U54C U78C showed a self-cleavage of 0.29. With A35U C40U C44G U67C C79G the self-cleavage was 0.12. With U41A U43C U51C G55A the self-cleavage was 0.14. With U41C A57G C79G the self-cleavage was 1.23. In the case of C40U U54C U60C U66A A75U, the self-cleavage is reported as 0.11. For U41A C62A U69A U72C, the self-cleavage was 0.13. C39A U41A U67C showed a self-cleavage of 0.17. In the case of C40U G52A U78A, the self-cleavage is reported as 0.88. Variant A35U U51C U66C A75G has a self-cleavage of 0.46. U41A G42A U43C C44U U69A showed a self-cleavage of 0.26. Variant G36A U51A U54C has a self-cleavage of 0.26. Variant U41C G46U U74A has a self-cleavage of 0.53. With U41C U49A U78C the self-cleavage was 0.65. With U41C A45U U80A the self-cleavage was 0.64. Variant C39A U54C A64U U69A has a self-cleavage of 0.06. A35U U48C U54C gave a self-cleavage of 0.2. C37U U43C U49G U51A A65G gave a self-cleavage of 0.07. Variant C40A U51A A56U U66C has a self-cleavage of 0.12. Work on G36U U60A C79A yielded a self-cleavage of 0.14. Variant A35U U49C U78C has a self-cleavage of 0.21. U41A A47G C59A A65G U80C showed a self-cleavage of 0.1. C38U C39A U76C showed a self-cleavage of 0.09. C39A U51C U80C gave a self-cleavage of 0.08. Variant C37U G52A C59U has a self-cleavage of 0.69. With U41A G70A U74A the self-cleavage was 0.16. Work on U41A A47G U78C yielded a self-cleavage of 0.11. In the case of C38U U60C C68A, the self-cleavage is reported as 0.1. For U41C U51A A65U, the self-cleavage was 0.57. C37U A56G A75U showed a self-cleavage of 0.79. Variant A35U U54C U60C A64U U76C U78C has a self-cleavage of 0.11. C38G U67C U80C gave a self-cleavage of 0.09. Variant G36A U43A U60G has a self-cleavage of 0.18. Work on U41A A57G U60C U78C yielded a self-cleavage of 0.11. With C40U U48C G55A A56U the self-cleavage was 0.13. In the case of A35U C40U U67C, the self-cleavage is reported as 0.08. U41C A64U U69A gave a self-cleavage of 0.32. For C38U U48A U69C C71U, the self-cleavage was 0.14. U41A U49C U69A U76A showed a self-cleavage of 0.09. With C38U A47G U78C the self-cleavage was 0.48. A35U G52A U72C gave a self-cleavage of 0.85. C37U U43C A65G showed a self-cleavage of 0.1. For C40A U48C U69A, the self-cleavage was 0.18. C38A U51C U80C showed a self-cleavage of 0.25. U41A A57G U66C showed a self-cleavage of 0.14. C39A A57C A64G showed a self-cleavage of 0.15. In the case of C37G A64U U69A, the self-cleavage is reported as 0.08. U41A U58C U72A gave a self-cleavage of 0.05. With C40U U60A U72C the self-cleavage was 0.53. In the case of A35U C44A U58C C81A, the self-cleavage is reported as 0.13. Variant G36A U54A A56G has a self-cleavage of 0.14. Work on U41C U48C G70A yielded a self-cleavage of 0.47. Work on U41C U48C A57U U66C yielded a self-cleavage of 0.12. Work on U41A G70U U72C yielded a self-cleavage of 0.1. With U41C A56G U60C U80A the self-cleavage was 0.28. Work on A35U U49C A57U yielded a self-cleavage of 0.16. U41C U43C A64U showed a self-cleavage of 0.15. C37U U54A A64U U69C gave a self-cleavage of 0.29. U41A G46U C59A gave a self-cleavage of 0.37. For C37G G42U U60A, the self-cleavage was 0.43. With A35U C39A A65G U74C the self-cleavage was 0.13. U41A G52C U60A U69C gave a self-cleavage of 0.09. C37U A45C A75U showed a self-cleavage of 0.28. C39U U72G U78C showed a self-cleavage of 1.2. In the case of A35U C37U U48C, the self-cleavage is reported as 0.17. Variant C38A G55U A57G has a self-cleavage of 0.08. G36U U43A U51G showed a self-cleavage of 0.17. In the case of A35U A45G U49C U72C, the self-cleavage is reported as 0.1. Variant U41C A56C A75G has a self-cleavage of 0.43. U41C A65U U66C U67C U74C U80A gave a self-cleavage of 0.37. For U41C U43A U49C A75G, the self-cleavage was 0.16.
